In all, about 390,000 compounds went through this assay and about 360 (0.092%) were called active. Inconclusive results, whose numbers are uncertain, are shown with a selection of clear calls. Calls come from the whole dose curve; as a rule, active = well fitted inhibition curve with a large enough effect; inconclusive = small, poorly fitted or top-dose-only effect; inactive = no such curve, though single readings can be large or run the other way. Where the call is inconclusive, the potency comes from a doubtful curve fit.
These molecules were tested against Isocitrate dehydrogenase [NADP] cytoplasmic (Homo sapiens) (UniProt O75874) (assay: qHTS for Inhibitors of mutant isocitrate dehydrogenase 1 (IDH1): qHTS). Details: IDH1-R132H enzyme, NADPH consumption, diaphorase/resazurin fluorescence; series mostly up to 76.6 µM; activity change, negative = inhibition: at the top concentration.
Procedure, shortened: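 IDH1-R132H (0.5 ug/mL dispensed) in pH 7.5 Tris buffer was preincubated 30 min with compound, then given a substrate mix of 0.016 mM NADPH and 2 mM alpha-KG for 80 min at room temperature; remaining NADPH was read by diaphorase/resazurin fluorescence.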
% is set by controls: 0 for no effect and ±100 for the full control effect; potency is the fitted concentration of half-maximal effect; tags give direction and shape of the fitted curve.
Note: nearly all actives have a fitted effect of over 65% in size.

| SMILES | Potency | activity change, negative = inhibition |
| --- | --- | --- |
| CCC(=O)OCC(=O)[C@@]1(OC(=O)CC)[C@@H](C)C[C@H]2[C@@H]3CCC4=CC(=O)C=C[C@]4(C)[C@@]3(Cl)[C@@H](O)C[C@@]21C | inconclusive: 35.5 µM [inhibitor, partial curve, poor fit] | – |
| Cc1ccc(/C=C2\S/C(=N/S(=O)(=O)c3cccs3)NC2=O)cc1 | inconclusive: 52.1 µM [inhibitor, single point] | – |
| O=C(Nc1nc2ccccc2[nH]1)c1ccccc1F | – | inactive: 12.5% |
| COCCn1c(=N)c(C(=O)NCCc2ccccc2)cc2c(=O)n3cccc(C)c3nc21 | – | inactive: -1.41% |
| Cc1ccc(S(=O)(=O)N(C)Cc2ccc(C(=O)N/N=C/c3ccc(OC(F)F)cc3OC(F)F)cc2)cc1 | – | inactive: -0.551% |
| CC(C)CSc1nc(N2CCOCC2)c2c(c1C#N)CC(C)(C)SC2 | inconclusive: 58.5 µM [inhibitor, single point] | – |
| COc1cc(/C=C2/SC(=S)N(Cc3ccccc3)C2=O)ccc1O | inconclusive: 58.5 µM [inhibitor, single point] | – |
| O=C1[C@H]2[C@@H](c3ccccc3)N[C@]3(CCCN(Cc4ccc(Br)cc4)C3=O)[C@H]2C(=O)N1Cc1ccccc1 | inconclusive: 44.7 µM [inhibitor, partial curve, poor fit] | – |
| C=CCOc1ccc(/C=N/NC(=O)C2CCCC2)cc1OCC | – | inactive: -1.2% |
| COc1ccc(-n2c(=O)c3c4c(sc3n(Cc3ccc(F)cc3)c2=O)CCCC4)c(OC)c1 | inconclusive: 44.7 µM [inhibitor, single point] | – |
| O=C(Nc1ccc(F)cc1)C1CCN(S(=O)(=O)c2ccc3[nH]c(=O)oc3c2)CC1 | inconclusive: 58.5 µM [inhibitor, partial curve, poor fit] | – |
| COc1cc(-c2cc(C(=O)Nc3ccc(S(=O)(=O)Nc4ncccn4)cc3)c3ccccc3n2)cc(OC)c1OC | inconclusive: 58.5 µM [inhibitor, single point] | – |
| CCCCc1nc(N2CCOCC2)c(C#N)c2c1CCCC2 | – | inactive: 1.8% |
| COCCCn1c(=O)/c(=C/c2ccccc2OC(C)C)s/c1=C(\C#N)C(=O)Nc1ccc(C(=O)O)cc1 | inconclusive: 44.7 µM [inhibitor, partial curve] | – |
| C=C1CC2(CC(c3ccccc3)OC(c3ccccc3)C2)OC1=O (configuration not stated) | active: 58.5 µM | – |
| CCOC(=O)C1=C(c2ccccc2)NC(SCC)=C(C#N)C1c1cccnc1 (configuration not stated) | inconclusive: 41.4 µM [inhibitor, partial curve] | – |
| COc1cc(C2CC(=O)Oc3c2c(=O)n(C)c2ccccc32)ccc1O (configuration not stated) | inconclusive: 63.1 µM [inhibitor, single point] | – |
| CCOC(=O)c1c(C)[nH]c(C)c1S(=O)(=O)N(C)CC(=O)Nc1ccc(C)cc1C | – | inactive: -0.559% |
| COc1ccc2c(-c3ccc(OCCN4CCOCC4)cc3)c(-c3ccccc3OC)sc2c1 | – | inactive: -3.52% |
| COc1ccc(N(C(=O)c2ccco2)C(C(=O)NC2CCCC2)c2cccs2)cc1 (configuration not stated) | inconclusive: 52.1 µM [inhibitor, partial curve, poor fit] | – |
| CCOc1ccc(S(=O)(=O)Nc2ccc(C(=O)N(C)CC(=O)Nc3ccc(OC)cc3)cc2)cc1 | inconclusive: 44.7 µM [inhibitor, partial curve, poor fit] | – |
| O=C1NC[C@H](Cc2ccccc2)N(C[C@H]2CCCN2C[C@H](Cc2ccc(O)cc2)N2C[C@H](Cc3ccc(O)cc3)N(CC3CCCCCC3)C(=O)C2=O)C1=O | inconclusive: 35.5 µM [inhibitor, partial curve] | – |
| COc1ccc(-c2c(C)nn3c(N)c(-c4ccccc4)cnc23)cc1OC | inconclusive: 58.5 µM [inhibitor, single point] | – |

| SMILES | Potency | activity change, negative = inhibition |
| --- | --- | --- |
| CC(C)NC(=O)c1ccccc1NS(=O)(=O)c1ccc(Br)s1 | – | inactive: 2.27% |
| COc1cc2cnc(-c3ccccc3)c(-c3ccc(C#N)cc3)c2cc1OC | active: 31.6 µM | – |
| Cc1ncoc1C(=O)Nc1ccccc1C(N)=O | – | inactive: 6.62% |
| Nc1c(C(=O)N2CCCC2)sc2nc3c(cc12)CCCCCC3 | – | inactive: 10.7% |
| Cc1ccc(NC(=O)CSc2nc(-c3cccs3)nc3cc(=O)[nH]n23)cc1 | inconclusive: 44.7 µM [inhibitor, single point] | – |
| CCOC(=O)c1cc2c(=O)n3ccccc3nc2n(Cc2ccco2)c1=NC(=O)c1ccccc1Br | inconclusive: 50.1 µM [inhibitor, single point] | – |
| Cc1ccccc1C1=C/C(=C(\SS/C(C(=O)c2ccc(OCC(=O)O)c(Cl)c2Cl)=C2\C=C(c3ccccc3C)SS2)C(=O)c2ccc(OCC(=O)O)c(Cl)c2Cl)SS1 | active: 11.7 µM | – |
| COc1ccc(NS(=O)(=O)c2ccc(NC(=S)NC(=O)/C=C/c3ccccc3)cc2)nn1 | inconclusive: 39.8 µM [inhibitor, partial curve] | – |
| CN1C(=CC=C2C=C(I)C(=O)C(I)=C2)C(C)(C)c2ccccc21 | active: 46.5 µM | – |
| CC(C)CCNC(=O)c1ccc2c(c1)NC(=O)C(CS(=O)(=O)Cc1ccc(F)cc1)N2 (configuration not stated) | – | inactive: -7.75% |
| O=C(NCc1ccc2c(c1)CCN2C(=O)c1ccccc1)c1cc2ccccc2[nH]1 | – | inactive: 0% |
| COc1ccc(NC(=O)/C(C#N)=C\c2cc(OC)c(OCc3ccc(C(=O)O)cc3)cc2Br)cc1 | inconclusive: 46.5 µM [inhibitor, partial curve] | – |
| CC(=O)C1=C(c2ccc(C)cc2)N(C(C)=O)n2c(nnc2C2CCCCC2)S1 | inconclusive: 44.7 µM [inhibitor, partial curve, poor fit] | – |
| O=C(CCl)c1ccc(Cc2ncc(C(F)(F)F)cc2Cl)s1 | inconclusive: 18.5 µM [inhibitor, full curve] | – |
| CCCCOc1ccc(C(NC(=O)OCC)NC(=O)OCC)cc1 | – | inactive: 7.68% |
| COc1cc(C2c3c(-c4ccccc4O)n[nH]c3C(=O)N2CCO)ccc1OCc1ccccc1 (configuration not stated) | inconclusive: 44.7 µM [inhibitor, partial curve, poor fit] | – |
| Cc1csc(NC(=O)CCCC(=O)O)c1-c1nc2ccccc2s1 | inconclusive: 41.4 µM [inhibitor, partial curve] | – |
| CCN(C(=O)c1ccco1)c1nc(-c2ccc(OC)cc2)cs1 | – | inactive: -5.51% |
| O=C(NC1CCCCC1)C(c1ccncc1)N(C(=O)c1ccco1)c1ccc(F)cc1 (configuration not stated) | inconclusive: 46.5 µM [inhibitor, partial curve, poor fit] | – |
| O=C(NC(=S)N1CCCC1)c1ccccc1 | inconclusive: 63.1 µM [inhibitor, single point] | – |
| OCCNc1ncnc2ccc(Br)cc12 | – | inactive: -0.916% |
| CC(OC(=O)c1ccccc1Nc1ccc(SC(F)F)cc1)C(N)=O (configuration not stated) | – | inactive: -0.859% |
| COc1ccc(NC(=O)CN2C(=O)/C(=C3\SC(=S)N(CCC(=O)O)C3=O)c3ccccc32)cc1 | inconclusive: 52.1 µM [inhibitor, partial curve, poor fit] | – |

| SMILES | Potency | activity change, negative = inhibition |
| --- | --- | --- |
| COc1cccc(/C=C2\SC(=S)N(C(Cc3ccccc3)C(=O)O)C2=O)c1 (configuration not stated) | – | inactive: -5.78% |
| CCOc1cc(/C=C(\C#N)C(=O)NCC2CCCO2)ccc1O (configuration not stated) | inactive | – |
| Cc1ccc(/C=C/C(=O)NCc2ccc(S(N)(=O)=O)cc2)o1 | – | inactive: 2.98% |
| CCC(c1nnnn1C1CCCCC1)N(Cc1ccco1)Cc1cc2ccc(OC)cc2[nH]c1=O (configuration not stated) | inconclusive: 14.7 µM [inhibitor, partial curve, poor fit] | – |
| Cc1nc(N2CCN(C(=O)c3cccs3)CC2)c2c3c(sc2n1)CCCC3 | inconclusive: 44.7 µM [inhibitor, single point] | – |
| CCOC(=O)c1c(C)c(C(=O)NCCc2ccccc2)c(C)n1C | – | inactive: -9.51% |
| CC(C)(C)c1cc(CP(=O)(c2ccccc2)c2ccccc2)cc(C(C)(C)C)c1O | inconclusive: 46.5 µM [inhibitor, partial curve] | – |
| CCCCCn1cc2c(c1-c1ccc(Br)cc1)c(=O)n(C)c(=O)n2C | inconclusive: 50.1 µM [inhibitor, single point] | – |
| COc1cc(/C=C2/C(=O)ON=C2C)ccc1OCc1ccccc1F | inconclusive: 46.5 µM [inhibitor, partial curve] | – |
| CSC1=NC(=O)/C(=C/c2ccc(SC)cc2)S1 | active: 35.5 µM | – |
| COc1ccc(-c2csc3nc(-c4cccnc4)nc(N4CCC(C(N)=O)CC4)c23)cc1OC | inconclusive: 58.5 µM [inhibitor, single point] | – |
| CC1CCc2c(sc3nc(C4CC4)nc(N4CCN(C(=O)c5ccco5)CC4)c23)C1 (configuration not stated) | inconclusive: 26.1 µM [inhibitor, single point] | – |
| C[C@H](CO)N1C[C@H](C)[C@@H](CN(C)S(=O)(=O)c2cccs2)Oc2ccc(NC(=O)Nc3ccc(C(F)(F)F)cc3)cc2C1=O | – | inactive: 2.71% |
| Nc1ccc(O)cc1C(=O)OCC(=O)C12CC3CC(CC(C3)C1)C2 | – | inactive: -1.32% |
| COc1ccc(S(=O)(=O)Nc2ccc(S(=O)(=O)Nc3ccc(F)cc3)cc2)cc1C | inconclusive: 52.1 µM [inhibitor, partial curve] | – |
| CCC1CCCCN1S(=O)(=O)c1ccc(NC(=O)c2cccs2)cc1 (configuration not stated) | – | inactive: 10.3% |
| Cc1cc(-c2ccc(S(=O)(=O)NCc3ccc(Cl)cc3)cc2)on1 | – | inactive: -5.31% |
| CC(=O)c1ccc(NS(=O)(=O)c2cccc(S(=O)(=O)c3ccc(Cl)cc3)c2)cc1 | inconclusive: 15.8 µM [inhibitor, full curve] | – |
| O=C(NNC(=O)c1cc2cc3ccccc3nc2s1)c1cccc(Cl)c1 | – | inactive: 2.14% |
| COC(=O)c1cc(OC)c(OC)cc1NC(=O)c1c(-c2ccccc2Cl)noc1C | – | inactive: 1.21% |
| CCN1/C(=C/C(C)=C/c2sc3ccccc3[n+]2CC)Sc2ccccc21 | inconclusive: 13.1 µM [inhibitor, full curve] | – |
